The full ranking holds about 33,000 sequences; the median of “E-score (-0.5 to 0.5)” is about -0.036, and the highest 2% start at about 0.37. The list shows a part of the results.
molecular target: T1, Yer064c (UniProt P40041); assay: PBM E-score (8-mer binding enrichment) (E-score (-0.5 to 0.5)); higher = stronger / more preferred TF binding; most listed sequences are background and not binding sites; details: protein concentration: 200 nM; construct: GST-full length
T1 sequence: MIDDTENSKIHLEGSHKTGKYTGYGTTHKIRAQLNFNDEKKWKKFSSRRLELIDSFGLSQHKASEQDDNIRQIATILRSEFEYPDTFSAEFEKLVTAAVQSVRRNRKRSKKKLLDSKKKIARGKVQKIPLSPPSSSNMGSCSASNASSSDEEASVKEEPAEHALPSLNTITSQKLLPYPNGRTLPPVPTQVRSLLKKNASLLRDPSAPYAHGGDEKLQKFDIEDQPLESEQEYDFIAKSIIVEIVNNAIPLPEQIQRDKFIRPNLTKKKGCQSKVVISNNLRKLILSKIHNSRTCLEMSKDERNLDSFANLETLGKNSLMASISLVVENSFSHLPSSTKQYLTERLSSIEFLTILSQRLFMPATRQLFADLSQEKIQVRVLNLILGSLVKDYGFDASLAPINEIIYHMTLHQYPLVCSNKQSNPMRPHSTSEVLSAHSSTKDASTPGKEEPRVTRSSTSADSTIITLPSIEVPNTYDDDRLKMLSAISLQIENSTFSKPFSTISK
How it was run: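 Bound GST-tagged yeast transcription factors, applied at about 100-200 nM to double-stranded universal all-10-mer Agilent arrays, were detected with fluorescent anti-GST. Scans were normalised with masliner. A modified Wilcoxon-Mann-Whitney statistic, the E-score, was assigned to each ungapped eight-base word pooled with its reverse complement by the Universal PBM Analysis Suite.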

Row | Sequence | PBM E-score
1 | CCAGCGAC | 0.014
2 | ATGCCGCC | -0.282
3 | CTTGCATC | -0.152
4 | CTTGCGAA | 0.00222
5 | ACTCGTTC | 0.257
6 | ATCGTCGG | 0.172
7 | ACTGCGTC | -0.00926
8 | GAACGCAA | 0.0733
9 | ACGGAAAT | 0.0967
10 | AACAAAAA | 0.141
11 | AGGTTAGG | -0.104
12 | ACCCAGGT | -0.175
13 | GCGAGTCA | 0.485
14 | CGCAACTC | 0.00054
15 | TAGCACCA | -0.204
16 | CATAATGG | -0.0492
17 | GTCGAATA | -0.165
18 | CCGTTACC | -0.0482
19 | CACAGCGA | 0.138
20 | GATATGAA | -0.0315
21 | AGACGGAG | 0.00172
22 | ATACGCTA | 0.00775
23 | ATCTTAGA | 0.0924
24 | ATTATGTA | 0.115
25 | ACCAGTCT | 0.0632

Row | Sequence | PBM E-score
26 | CACTAATG | -0.127
27 | ACTTGAAC | 0.115
28 | ACTCCCCC | -0.045
29 | ACGTCTGG | -0.114
30 | GTGACGCA | 0.0072
31 | AAGTATAC | 0.00489
32 | CGTCTCTC | -0.0156
33 | ACCGGTTG | -0.196
34 | ACTCTTCA | 0.217
35 | AACTCTTG | -0.0938
36 | AACACGGC | -0.1
37 | AGTCTGGG | 0.0422
38 | ATAAGGCC | -0.255
39 | AGACAGAT | -0.0587
40 | AGCAATGC | -0.218
41 | AGATGGGA | -0.239
42 | AGTCGATA | 0.179
43 | TGTCATAA | 0.0821
44 | GCGACTCC | 0.39
45 | ATTCCTAA | 0.183
46 | CTCTGCAA | 0.019
47 | CGACGTTC | -0.184
48 | AAACGAAG | -0.0255
49 | GATCAAAA | 0.103
50 | GTGCGCCA | -0.227

Row | Sequence | PBM E-score
51 | TGGCTAAA | 0.306
52 | GTAAAAAA | -0.0393
53 | ACTCCTCG | 0.19
54 | GAGCGATA | -0.249
55 | ACAGTGCG | -0.28
56 | GCGCACAA | -0.0609
57 | AAGAATAT | -0.0669
58 | CTAGTTGC | -0.0798
59 | AGTCGTTA | 0.361
60 | CGTCCCCC | -0.148
61 | ACGGTGTA | -0.0193
62 | ATAATCGG | 0.117
63 | GCGGAAAC | -0.252
64 | ATCTGATG | -0.0797
65 | ATACCATC | -0.0786
66 | CCTTGTTA | 0.0372
67 | GTATCTAA | 0.0316
68 | GGCAACAC | -0.17
69 | GAACATAC | -0.137
70 | ACAAAAAC | -0.0516
71 | TAACGAAA | 0.106
72 | AGGCAGTA | -0.0516
73 | TCCGTACA | 0.075
74 | GACTACAA | 0.402
75 | ACGAGCGA | -0.0924

Row | Sequence | PBM E-score
76 | GAATGGCA | -0.0851
77 | CAGGAGGA | -0.175
78 | CGCAGATA | 0.101
79 | ATCTCGAC | 0.0974
80 | CTCGGTGC | -0.148
81 | AAATTTAC | 0.164
82 | GAAAAACC | -0.142
83 | CGCACTGC | -0.188
84 | CGTTTAAG | 0.112
85 | AAGCGGGG | 0.0204
86 | ACGCAGGG | 0.0603
87 | AACCATCG | 0.286
88 | AGCTCAGC | -0.214
89 | GGTACCGA | -0.0763
90 | CTCACGGC | -0.107
91 | ATTGTACC | -0.00593
92 | CACAGCTG | -0.0781
93 | TACGCCGA | -0.119
94 | GGCACTTA | -0.212
95 | AAATAGGG | -0.227
96 | AGTCTTAG | 0.408
97 | CAGTTAGG | -0.142
98 | ACCTTGAG | 0.145
99 | CAGAATGG | 0.0776
100 | ACCAGGGT | -0.137

Row | Sequence | PBM E-score
101 | GAACAGTA | 0.0874
102 | GGGTAAAC | 0.0204
103 | CCGGCCCC | -0.188
104 | GTTATACA | 0.0307
105 | AACTGTAC | -0.128
106 | GTGAATCA | 0.48
107 | AGCGAATA | 0.0298
108 | CTGATGTA | 0.00184
109 | TCAATGCA | 0.0319
110 | AGACGTCT | -0.229
111 | AAATGTGT | 0.197
112 | AAATTCAC | -0.131
113 | AGTTCGAG | 0.00281
114 | CACCGAAG | 0.137
115 | ATGATCCC | 0.0441
116 | GGCTAAAC | 0.14
117 | TGGTTGAA | -0.0755
118 | GATAAATA | 0.0251
119 | GGATTATA | 0.0308
120 | GGGCGCAA | -0.27
121 | AACGTCAC | -0.0191
122 | ATCATGCG | 0.294
123 | CGGAGCAC | -0.259
124 | CGCAAGGC | -0.25
125 | ATCCTACA | -0.106

Row | Sequence | PBM E-score
126 | CGCGGGTC | 0.00647
127 | ACGGGGAG | -0.0271
128 | CGTAACAG | -0.159
129 | ATTCAAAG | 0.106
130 | CCTTAGTA | -0.0218
131 | CAACGACA | -0.00606
132 | CAGACCTA | -0.0381
133 | AACTCCGC | -0.0186
134 | CTCGAAAA | -0.0314
135 | CAAAAACG | 0.0885
136 | CAACCAAG | -0.0316
137 | CGGGGGCA | -0.272
138 | GAACGATA | -0.0837
139 | ACATGAGC | 0.046
140 | AGATACCC | 0.036
141 | CGCTCATA | 0.0583
142 | AAGCCCGG | -0.22
143 | GACGAATC | 0.147
144 | AGTAACAG | 0.0438
145 | AAACCCTA | -0.146
146 | CAGACCCC | -0.331
147 | ACCTCTGG | -0.155
148 | GTGATAAC | -0.141
149 | ACAAATCA | 0.239
150 | AGAGATGG | -0.121

Row | Sequence | PBM E-score
151 | CCCCAGGG | -0.175
152 | TAGAGAGA | 0.0957
153 | GGATCACA | 0.0846
154 | GCGTCGCC | -0.296
155 | CAATTGCC | -0.16
156 | CACCGCCA | 0.0383
157 | CTCCAACC | -0.114
158 | ATGCCCAC | -0.213
159 | CGGTTCTA | 0.00584
160 | CTAGTCAA | 0.383
161 | GGGTAGAC | -0.0104
162 | CGGCCAAG | -0.251
163 | ACCATGAT | 0.217
164 | TTGGCAAA | 0.124
165 | TAATGGCA | -0.172
166 | CTCTTGCA | 0.00318
167 | ATCTCACC | -0.0478
168 | ACCTTGAC | 0.0835
169 | ACATCCTC | -0.0135
170 | CGCTCGCC | -0.158
171 | CTCCGCGA | 0.0481
172 | AGTCTCCA | 0.27
173 | GGTGTGTA | 0.158
174 | CTGTATTC | 0.0937
175 | GCTCAAGA | -0.0264

Row | Sequence | PBM E-score
176 | CCATTGCC | -0.138
177 | CCGAATCC | -0.186
178 | CCGATGAG | 0.165
179 | ACGCTAAT | 0.0724
180 | ACAGTGCT | -0.0394
181 | ATCTCAAT | 0.199
182 | CAGGACGG | -0.187
183 | AGTCACTG | 0.457
184 | CTCCTTAA | 0.223
185 | GGCTGGAC | -0.111
186 | ATTTAAAC | 0.181
187 | ACGAACTC | 0.124
188 | ATATGTCG | 0.0539
189 | CGTGTTCA | 0.103
190 | GGTGGTGA | 0.12
191 | AATATACA | 0.197
192 | TAACCTTA | 0.0118
193 | ATGTCCCC | -0.0719
194 | CACTCACC | 0.207
195 | AAGGCTCT | -0.308
196 | AGTCCCCC | 0.0093
197 | AGAAGAAT | 0.176
198 | ATTACTTC | 0.0758
199 | CCTTTGGA | -0.121
200 | CTCTTAAA | 0.172

Row | Sequence | PBM E-score
201 | AGGATAGA | 0.0149
202 | AGATCCCC | -0.241
203 | CCTAATCA | 0.376
204 | CTTATATC | -0.128
205 | AGCCCATG | -0.0315
206 | AGTCTCGG | 0.215
207 | ATGGCATA | -0.165
208 | CGACTATA | 0.374
209 | ACACACGA | 0.112
210 | AGCCCTAA | -0.0734
211 | CTATCCAC | -0.0341
212 | ACTGGATC | -0.111
213 | CGCCACTC | -0.189
214 | CAGATCAG | 0.0284
215 | ATACTGCA | -0.0463
216 | AAAGCGCC | -0.135
217 | AAATGAAT | 0.164
218 | AGATAATA | 0.0934
219 | CGTTCCTA | -0.114
